According to the RNAGym collection of RNA variant scans (doi:10.7554/elife.90254):
The source gives no read counts; variants with many changes may rest on few reads.

B1: LINE1-mini (parent)
chain: GGCAGAGCUCAACACAGCGUGGCAAAGUGGCUGUGGCUAGACUGCC

Variants of: B1
Assay: self-cleavage, relative activity (ratio to wild type); higher = more cleavage; in vitro, sequencing; the parent is a self-cleaving ribozyme

Row | Variant | self-cleavage
1 | A4U G7U A11U A14U G21U G27U G29U | 0.34
2 | G2A C8U U38C C46U | 1.23
3 | C3A A4G G7A | 0.11
4 | G17A C37U A41C | 0.05
5 | G2U C3U G17C U20A C23A G33U G36A C42G | 0.01
6 | A4U A11C G22A | 0.02
7 | A16G G21C U38G A39G | 0.01
8 | G2A G44A C45G | 0.6
9 | G17C G22C C42U C46U | 0.02
10 | G2U A11U C37U | 0.01
11 | C10U G22U C42A | 0.06
12 | G17A A26U G33A | 0.18
13 | A4U C13U A14G G36C | 0.03
14 | G2U A14U G17C C37A A39G A41G | 0.03
15 | A4G G5A A6U A16G G44C | 0.01
16 | C15A U38C G40U U43A | 0.06
17 | C15U G19A G29U G30A C45U | 0.12
18 | G1U A6U A16U U20A | 0.03
19 | G2U C18U C42A | 0.01
20 | G5C A12U C13A A39G C46U | 0.08
21 | G1A C3A A24U | 0.47

Row | Variant | self-cleavage
22 | G2A A16G G22C C23A | 0.09
23 | A6G A12G G29U G36U | 0.01
24 | G1A C13U C18G U32C A41C | 0.07
25 | C13A G22C A24C G27U G29C | 0.02
26 | C10A A24C G27A C45G | 0.01
27 | A6C A14U G35A A41G C45U | 0.05
28 | A6C C8U C10U C15A G17C A39U | 0.02
29 | G1A C10A G33A | 0.04
30 | C10A A41C C46G | 0.01
31 | G5A C18U G35U C45A | 0.08
32 | A16G C31A G33A | 0
33 | C23U C31G A39G C42A | 0.13
34 | G5U A11U U43A C46U | 0
35 | U28C G35U A41U | 0.1
36 | G17C A25U U34A C46A | 0.02
37 | G2U A6G G29U U32G G44C | 0.01
38 | C18G U34A G40U A41U C42U | 0.01
39 | C13A U20C G29U G40U | 0.06
40 | C8G C13U A26C G30A | 0.06
41 | G17U U20C A24U U43C | 0.04
42 | U20G G21A G33A | 0.01

Row | Variant | self-cleavage
43 | C23A A39G G40C | 0.02
44 | G17U G33A C45G | 0.04
45 | G2C C3G C15A | 0.05
46 | G5C C10U C23U G29A | 0.04
47 | C3A G19C C45U | 0.28
48 | C3A C10U A25G A26G G33C | 0.03
49 | G29C G30C G40A | 0.08
50 | G17C G30C C45G | 0.04
51 | G1C C18G A26G G36U | 0.01
52 | G1A C18A G36A G40A | 0.23
53 | G19U G35A C42U | 0.07
54 | C10U C15A A16G G30A C31A | 0.03
55 | C3G G21U U34C G40A | 0.05
56 | A4U A16C U32A | 0.28
57 | C18U C31U U34C | 0.02
58 | A11U A24U G36A C37U | 0.01
59 | A26G C31U G40C | 0.02
60 | A6G C13G G19C U20C G21C | 0.01
61 | C13G G29C C37A | 0.1
62 | G5C A12G G17C A39G | 0.01
63 | C13U G30A C45A | 0.14

Row | Variant | self-cleavage
64 | C3U G5A C15G A25G | 0.08
65 | C23A C31G C45A | 0.03
66 | G1U G2A G7U C13U A16C C23G U38A | 0.1
67 | G27U G30U U34G | 0.18
68 | G2A A4C G30C C31A U34C C37U C42G | 0.09
69 | A11C C13U G27C | 0.03
70 | G5C C10G A14G A26U | 0.03
71 | C3A A14C C15A | 0.12
72 | G2C G7A A39C U43A | 0.08
73 | C15A G21U C42U | 0.07
74 | G2C A16U G40A | 0.01
75 | G5A C8A G29C | 0.37
76 | A4U U28G U32G | 0
77 | G27A G33A U34C | 0.05
78 | A16U G29U U32G | 0.13
79 | C8A G36U G44A | 0.24
80 | G21C G30A G35A C46U | 0.22
81 | C3G A16G U28C G35C C45A C46G | 0.01
82 | G2A A4C A12C A41U | 0.04
83 | G2A G5A A14U U34G C46U | 0.32
